One experiment concerns HSkMC. The experiment in a line: cytotoxicity call (relative viability < 0.9). Conditions: 10 µM.
The test system of another experiment is HepG2. The experiment in a line: cytotoxicity call (relative viability < 0.9). Conditions: 10 µM.
Another experiment has as its system S. aureus RN4220. The experiment in a line: growth inhibition call (relative growth <= 0.2). Particulars: 50 µM.

SMILES strings stand for the structures. The list shows a part of the results.

Consider `CC(C)NC(=O)Nc1ccc2c(c1)C(=O)N([C@H](C)CO)C[C@H](C)[C@H](CN(C)S(C)(=O)=O)OCCCC[C@@H](C)O2`, for which the cytotoxicity call in the experiment with HSkMC and with HepG2 was “inactive” in each case. Besides, the growth inhibition call with S. aureus RN4220 was “inactive”.

As to `C[C@H](CO)N1C[C@H](C)[C@H](CN(C)S(=O)(=O)c2cccs2)Oc2ncc(-c3cccc(F)c3)cc2C1=O`, the cytotoxicity call in the experiment with HSkMC and with HepG2 was “inactive” each time. The growth inhibition call with S. aureus RN4220 is “inactive”.

As to `C[C@H]1CN([C@@H](C)CO)C(=O)Cc2cc(NC(=O)c3ccncc3)ccc2O[C@H]1CN(C)S(C)(=O)=O`, the cytotoxicity call in the experiment with HSkMC and with HepG2 was “inactive” throughout. Also, the growth inhibition call with S. aureus RN4220 was “inactive”.

In the case of `O=C1c2ccncc2C(=O)N1CN1CCOCC1`, the cytotoxicity call in the experiment with HSkMC and with HepG2 was “inactive” each time. Moreover, the growth inhibition call with S. aureus RN4220 is “inactive”.

`COc1ccc(CN(C)C[C@H]2OCCCC[C@H](C)Oc3ccc(NC(=O)CCC(F)(F)F)cc3C(=O)N([C@H](C)CO)C[C@@H]2C)cc1`: the cytotoxicity call in the experiment on HSkMC and in the experiment with HepG2 was “inactive” throughout. Besides, the growth inhibition call with S. aureus RN4220 is “inactive”.

Regarding `C[C@@H]1CCCCO[C@@H](CN(C)C(=O)Nc2ccc(F)cc2)[C@@H](C)CN([C@@H](C)CO)C(=O)c2cc(NC(=O)CCC(F)(F)F)ccc2O1`, the cytotoxicity call with HSkMC and in the experiment on HepG2 was “inactive” in each case. The growth inhibition call in the experiment with S. aureus RN4220 is “inactive”.

In the case of `CCCCCCCCCCCCCCCC(=O)O[C@@H]1[C@@H](O)[C@@H](O)[C@@H]([C@H](NC(=O)[C@@H]2C[C@@H](CCC)CN2C)[C@H](C)Cl)O[C@@H]1SC`, the cytotoxicity call in the experiment with HSkMC and with HepG2 was “inactive” in each case. Further, the growth inhibition call in the experiment on S. aureus RN4220 is “inactive”.

For `O=C(NCCCN1CCOCC1)[C@H]1N[C@H]2c3ccc(C4=CCCCC4)c(=O)n3C[C@H]2[C@@H]1CO`, the cytotoxicity call in the experiment with HSkMC and in the experiment on HepG2 was “inactive” each time. Further, in the experiment with S. aureus RN4220, the growth inhibition call is “inactive”.

Turning to `COc1ccc(NC(=O)N(C)C[C@H]2OCCCC[C@@H](C)Oc3ccc(NC(=O)c4ccncc4)cc3C(=O)N([C@@H](C)CO)C[C@H]2C)cc1`, the cytotoxicity call with HSkMC and in the experiment with HepG2 was “inactive” throughout. In the experiment with S. aureus RN4220, the growth inhibition call was “inactive”.

Regarding `Cc1cc(C(=O)Nc2cccc3c2O[C@@H](CN(C)C(=O)Nc2ccccc2)[C@@H](C)CN([C@@H](C)CO)C3=O)n(C)n1`, the cytotoxicity call in the experiment with HSkMC and in the experiment with HepG2 was “inactive” in each case. Besides, the growth inhibition call in the experiment with S. aureus RN4220 is “inactive”.

`Cc1ccc(S(=O)(=O)Nc2cccc3c2O[C@@H](CN(C)C(=O)NC(C)C)[C@H](C)CN([C@H](C)CO)C3=O)cc1`: the cytotoxicity call with HSkMC and with HepG2 was “inactive” in each case. Also, the growth inhibition call in the experiment with S. aureus RN4220 is “inactive”.

`Cc1noc(C)c1NC(=O)N(C)C[C@H]1OCCCC[C@H](C)Oc2ccc(NC(=O)CCC(F)(F)F)cc2C(=O)N([C@@H](C)CO)C[C@@H]1C`: the cytotoxicity call in the experiment on HSkMC and in the experiment with HepG2 was “inactive” each time. The growth inhibition call with S. aureus RN4220 is “inactive”.

Take `Cc1cc(NS(=O)(=O)c2ccc(N)cc2)nc(C)n1`: the cytotoxicity call in the experiment on HSkMC and in the experiment on HepG2 was “inactive” each time. For the same molecule, the growth inhibition call with S. aureus RN4220 is “inactive”.

For the molecule `CC(=O)NCCCC[C@@H]1NC(=O)[C@@H]2C[C@H](C(=O)NCCCCN(C)C)[C@H](c3ccc(O)cc3)N2C1=O`, the cytotoxicity call in the experiment with HSkMC and in the experiment with HepG2 was “inactive” in each case. Also, in the experiment with S. aureus RN4220, the growth inhibition call was “inactive”.

Take `O=C(C[C@@H]1C[C@@H]2c3cc(NC(=O)Nc4ccccc4)ccc3O[C@@H]2[C@H](CO)O1)NCCN1CCCCC1`: the cytotoxicity call in the experiment on HSkMC and in the experiment with HepG2 was “inactive” in each case. Besides, in the experiment on S. aureus RN4220, the growth inhibition call is “inactive”.

On to `C[C@@H]1CN([C@H](C)CO)C(=O)Cc2cc(NS(=O)(=O)c3ccccc3)ccc2O[C@H]1CN(C)S(=O)(=O)c1ccc(F)cc1`, for which the cytotoxicity call with HSkMC and with HepG2 was “inactive” each time. Moreover, the growth inhibition call in the experiment on S. aureus RN4220 is “inactive”.

With `C[C@H]1CCCCO[C@H](CN(C)S(=O)(=O)c2ccc(Cl)cc2)[C@@H](C)CN([C@@H](C)CO)C(=O)c2cc(NC(=O)c3ccncc3)ccc2O1`, the cytotoxicity call with HSkMC and with HepG2 was “inactive” in each case. Besides, the growth inhibition call in the experiment on S. aureus RN4220 is “inactive”.

Take `C[C@H](CO)N1C[C@H](C)[C@H](CN(C)S(C)(=O)=O)Oc2c(NC(=O)Nc3ccc4c(c3)OCO4)cccc2C1=O`: the cytotoxicity call in the experiment with HSkMC and with HepG2 was “inactive” throughout. Further, the growth inhibition call in the experiment on S. aureus RN4220 is “inactive”.

`C[C@H](CO)N1C[C@H](C)[C@@H](CN(C)C(=O)Cc2cccnc2)Oc2cc(C#CC3(O)CCCC3)ccc2S1(=O)=O`: the cytotoxicity call in the experiment on HSkMC and in the experiment with HepG2 was “inactive” in each case. Further, the growth inhibition call in the experiment with S. aureus RN4220 is “inactive”.

With `C[C@@H]1CN([C@@H](C)CO)C(=O)c2cc(C#CCN(C)C)cnc2O[C@@H]1CN(C)Cc1cccc(C(=O)O)c1`, the cytotoxicity call in the experiment with HSkMC and with HepG2 was “inactive” in each case. Also, the growth inhibition call with S. aureus RN4220 was “inactive”.

Turning to `COc1ccc(CNC(=O)N(C)C[C@@H]2OCc3ccccc3-c3c(n(C)c4ccccc34)C(=O)N([C@H](C)CO)C[C@@H]2C)cc1`, the cytotoxicity call in the experiment on HSkMC and in the experiment on HepG2 was “inactive” each time. Also, the growth inhibition call in the experiment on S. aureus RN4220 was “inactive”.

`COc1cccc(NC(=O)N[C@H]2C=C[C@H](CC(=O)N3CCN(C)CC3)O[C@H]2CO)c1`: the cytotoxicity call with HSkMC and with HepG2 was “inactive” in each case. Also, the growth inhibition call in the experiment with S. aureus RN4220 was “inactive”.

In the case of `COc1ccc(S(=O)(=O)Nc2ccc3c(c2)C(=O)N([C@@H](C)CO)C[C@@H](C)[C@@H](CN(C)C(=O)Nc2ccc4c(c2)OCO4)OCCCC[C@H](C)O3)cc1`, the cytotoxicity call in the experiment on HSkMC and in the experiment on HepG2 was “inactive” in each case. The growth inhibition call with S. aureus RN4220 was “inactive”.

Turning to `C[C@@H]1CN([C@@H](C)CO)C(=O)c2cc(NC(=O)Nc3ccccc3)ccc2O[C@H]1CN(C)S(=O)(=O)c1cn(C)cn1`, the cytotoxicity call in the experiment on HSkMC (human skeletal muscle cells) and with HepG2 was “inactive” in each case. Moreover, the growth inhibition call in the experiment on S. aureus RN4220 was “inactive”.

With `CCS(=O)(=O)Nc1ccc2c(c1)C(=O)N(C)[C@@H]1CC[C@H](CC(=O)N3CCN(C)CC3)O[C@H]1CO2`, the cytotoxicity call with HSkMC and in the experiment on HepG2 was “inactive” throughout. Besides, the growth inhibition call in the experiment with S. aureus RN4220 is “inactive”.

Consider `C[C@@H]1CCCCO[C@H](CN(C)Cc2ccc3c(c2)OCO3)[C@H](C)CN([C@H](C)CO)C(=O)c2cc(NC(=O)Nc3ccc(C(F)(F)F)cc3)ccc2O1`, for which the cytotoxicity call in the experiment with HSkMC and in the experiment on HepG2 was “active” each time. In addition, the growth inhibition call in the experiment on S. aureus RN4220 is “inactive”.

Turning to `Cc1noc(C)c1S(=O)(=O)N(C)C[C@H]1Oc2ccc(NS(=O)(=O)c3ccccc3)cc2C(=O)N([C@@H](C)CO)C[C@H]1C`, the cytotoxicity call with HSkMC and in the experiment on HepG2 was “inactive” in each case. The growth inhibition call in the experiment on S. aureus RN4220 is “inactive”.

In the case of `O=C(NCC(F)(F)F)[C@@H]1[C@@H](CO)[C@@H]2Cn3c(cccc3=O)[C@@H]2N1C(=O)C1CCC1`, the cytotoxicity call in the experiment with HSkMC and in the experiment with HepG2 was “inactive” throughout. The growth inhibition call in the experiment on S. aureus RN4220 is “inactive”.

(Values after the antibiotic and cytotoxicity screens of Wong et al. (2023).)
